These results are taken from patent US7083949.

One assay addresses T1, human IL-6 (human, UniProt P05231 30-212).
T1 construct: also called recombinant human IL-6
Nature of the assay: affinity chromatography on NHS-activated Sepharose derivatized with recombinant human IL-6.

Assay [1] has as its target recombinant human IL-13 (CHO; Applicants' own material) (human, UniProt P35225 partial chain, limits assumed). Nature of the assay: cell-based or functional assay.
Chain of UniProt P35225 (P35225 35-146 limits assumed): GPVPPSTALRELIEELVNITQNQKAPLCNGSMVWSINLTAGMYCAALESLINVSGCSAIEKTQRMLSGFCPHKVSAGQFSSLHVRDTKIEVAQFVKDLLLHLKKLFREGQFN

Chain of human IL-6 (P05231 30-212 limits assumed): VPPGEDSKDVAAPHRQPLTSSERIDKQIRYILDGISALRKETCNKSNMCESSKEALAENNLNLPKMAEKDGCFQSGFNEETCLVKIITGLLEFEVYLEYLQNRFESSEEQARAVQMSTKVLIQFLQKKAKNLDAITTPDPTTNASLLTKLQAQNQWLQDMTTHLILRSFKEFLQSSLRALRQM

B1: gp130-Cγ1 dimer (other)
chain: ELLDPCGYISPESPVVQLHSNFTAVCVLKEKCMDYFHVNANYIVWKTNHFTIPKEQYTIINRTASSVTFTDIASLNIQLTCNILTFGQLEQNVYGITIISGLPPEKPKNLSCIVNEGKKMRCEWDGGRETHLETNFTLKSEWATHKFADCKAKRDTPTSCTVDYSTVYFVNIEVWVEAENALGKVTSDHINFDPVYKVKPNPPHNLSVINSEELSSILKLTWTNPSIKSVIILKYNIQYRTKDASTWSQIPPEDTASTRSSFTVQDLKPFTEYVFRIRCMKEDGKGYWSDWSEEASGITYEDRPSKAPSFWYKIDPSHTQGYRTVQLVWKTLPPFEANGKILDYEVTLTRWKSHLQNYTVNATKLTVNLTNDRYLATLTVRNLVGKSDAAVLTIPACDFQATHPVMDLKAFPKDNMLWVEWTTPRESVKKYILEWCVLSDKAPCITDWQQEDGTVHRTYLRGNLAESKCYLITVTPVYADGPGSPESIKAYLKQAPPSKGPTVRTKKVGKNEAVLEWDQLPVDVQNGFIRNYTIFYRTIIGNETAVNVDSSHTEYTLSSLTSDTLYMVRMAAYTDEGGKDGPEFTFTTPKFAQGEIESG[not shown - human IgG1 constant region]
notes: Homodimer without IL-6Rα-κ, removed on the IL-6 column; also called (gp130-Cγ1)2
Consider B1, for which the binding result in the assay with human IL-6 is recorded as “no binding”.

B2: IL-4/IL-13 Trap 1132 (Fc fusion)
chain: [not shown - about 200 residues]PTETQPPVTNLSVSVENLATVIWTWNPPEGASSNCSLWYFSHFGDKQDKKIAPETRRSIEVPLNERICLQVGSQCSTNESEKPSILVEKCISPPEGDPESAVTELQCIWHNLSYMKCSWLPGRNTSPDTNYTLYYWHRSLEKIHQCENIFREGQYFGCSFDLTKVKDSSFEQHSVQIMVKDNAGKIKPSFNIVPLTSRVKPDPPHIKNLSFHNDDLYVQWENPQNFISRCLFYEVEVNNSQTETHNVFYVQEAKCENPEFERNVENTSCFMVPGVLPDTLNTVRIRVKTNKLCYEDDKLWSNWSQEMSIGKKRNSTG[not shown - human IgG1 Fc]
notes: The changes are already in the entry; Nucleotides numbered from -69: the first 23 residues precede the mature N-terminus; not cut here
Take B2: the “IC50, TF1 cell proliferation with 15 pM IL-13 (CHO), MTS” value in assay [1] turned out to be 17 pM.
